Publication PMC12820563, “FoxP3 forms a head-to-head dimer in vivo and stabilizes its multimerization on adjacent microsatellites”
The list shows a part of the results.

target: T1, MBP-FoxP1dN (Mus musculus, UniProt P58462 326-579); experiment: PD-seq (MBP pull-down with sequencing); 20 mM Tris-HCl pH 7.5, 100 mM NaCl, 1.5 mM MgCl2, 0.4 uM protein, 0.1 uM dsDNA library, 30 min, room temperature, amylose pull-down; high values mean tight binding; conditions: protein: recombinant; tags: His6-MBP; chain copies: 2; dsDNA, one strand shown
T1 sequence: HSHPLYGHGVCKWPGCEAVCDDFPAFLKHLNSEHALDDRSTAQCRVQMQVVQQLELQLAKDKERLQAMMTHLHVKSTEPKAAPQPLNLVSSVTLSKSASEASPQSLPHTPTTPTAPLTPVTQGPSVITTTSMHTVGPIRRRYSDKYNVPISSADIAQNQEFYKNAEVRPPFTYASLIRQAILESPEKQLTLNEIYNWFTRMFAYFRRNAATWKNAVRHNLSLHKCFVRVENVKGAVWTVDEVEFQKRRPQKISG
Procedure, shortened: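 In Tris pH 7.5 buffer with NaCl and MgCl2, 0.4 µM His6-MBP-tagged mouse FoxP3 or FoxP1 fragment lacking the N-terminus, from E. coli, met 0.1 µM Klenow-filled double-stranded degenerate DNA library for 30 min at room temperature. Three washes on amylose resin followed capture of the complexes, then proteinase K release of DNA, PCR barcoding and Illumina sequencing. Binding is taken as pooled-replicate reads-per-million enrichment of pull-down relative to input.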

| Sequence | binding signal |
| --- | --- |
| GATGATTGTTCTCCCAGCTGATGAATTAGAGTGGTCGAGTAAACAAATTTTCCTAATCTTTCTGTTCAAGCGCCATCTAC | 0.915 RPM ratio (pull-down/input) |
| GATGATTGTTCTCCCAGCTGATGAATTCCCGCAATCGAGTAAACAAATTTTCCTAATCTTTCTGTTCAAGCGCCATCTAC | 1.08 RPM ratio (pull-down/input) |
| GATGATTGTTCTCCCAGCTGATGAATTCAGGTAGTCGAGTAAACAAATTTTCCTAATCTTTCTGTTCAAGCGCCATCTAC | 0.956 RPM ratio (pull-down/input) |
| GATGATTGTTCTCCCAGCTGATGAATTGGTCACCTCGAGTAAACAAATTTTCCTAATCTTTCTGTTCAAGCGCCATCTAC | 0.86 RPM ratio (pull-down/input) |
| GATGATTGTTCTCCCAGCTGATGAATTGTGGCGATCGAGTAAACAAATTTTCCTAATCTTTCTGTTCAAGCGCCATCTAC | 1.03 RPM ratio (pull-down/input) |
| GATGATTGTTCTCCCAGCTGATGAATTTTACGGGTCGAGTAAACAAATTTTCCTAATCTTTCTGTTCAAGCGCCATCTAC | 0.795 RPM ratio (pull-down/input) |
| GATGATTGTTCTCCCAGCTGATGAATTGAGCGGTTCGAGTAAACAAATTTTCCTAATCTTTCTGTTCAAGCGCCATCTAC | 0.846 RPM ratio (pull-down/input) |
| GATGATTGTTCTCCCAGCTGATGAATTTTCAATATCGAGTAAACAAATTTTCCTAATCTTTCTGTTCAAGCGCCATCTAC | 1.06 RPM ratio (pull-down/input) |
| GATGATTGTTCTCCCAGCTGATGAATTTCGAGAGTCGAGTAAACAAATTTTCCTAATCTTTCTGTTCAAGCGCCATCTAC | 0.774 RPM ratio (pull-down/input) |
| GATGATTGTTCTCCCAGCTGATGAATTAAAGTCTTCGAGTAAACAAATTTTCCTAATCTTTCTGTTCAAGCGCCATCTAC | 0.894 RPM ratio (pull-down/input) |
| GATGATTGTTCTCCCAGCTGATGAATTCCAATGATCGAGTAAACAAATTTTCCTAATCTTTCTGTTCAAGCGCCATCTAC | 0.843 RPM ratio (pull-down/input) |
| GATGATTGTTCTCCCAGCTGATGAATTAGGTTCGTCGAGTAAACAAATTTTCCTAATCTTTCTGTTCAAGCGCCATCTAC | 0.902 RPM ratio (pull-down/input) |
| GATGATTGTTCTCCCAGCTGATGAATTGCAGTGCTCGAGTAAACAAATTTTCCTAATCTTTCTGTTCAAGCGCCATCTAC | 1.01 RPM ratio (pull-down/input) |
| GATGATTGTTCTCCCAGCTGATGAATTTAAGGCCTCGAGTAAACAAATTTTCCTAATCTTTCTGTTCAAGCGCCATCTAC | 0.839 RPM ratio (pull-down/input) |
| GATGATTGTTCTCCCAGCTGATGAATTGCCACATTCGAGTAAACAAATTTTCCTAATCTTTCTGTTCAAGCGCCATCTAC | 1.2 RPM ratio (pull-down/input) |
| GATGATTGTTCTCCCAGCTGATGAATTGCATCAATCGAGTAAACAAATTTTCCTAATCTTTCTGTTCAAGCGCCATCTAC | 1.53 RPM ratio (pull-down/input) |
| GATGATTGTTCTCCCAGCTGATGAATTGTAGCCATCGAGTAAACAAATTTTCCTAATCTTTCTGTTCAAGCGCCATCTAC | 1.08 RPM ratio (pull-down/input) |
| GATGATTGTTCTCCCAGCTGATGAATTCCCGCTATCGAGTAAACAAATTTTCCTAATCTTTCTGTTCAAGCGCCATCTAC | 0.815 RPM ratio (pull-down/input) |
| GATGATTGTTCTCCCAGCTGATGAATTCCAAGTGTCGAGTAAACAAATTTTCCTAATCTTTCTGTTCAAGCGCCATCTAC | 0.858 RPM ratio (pull-down/input) |
| GATGATTGTTCTCCCAGCTGATGAATTCCAATGTTCGAGTAAACAAATTTTCCTAATCTTTCTGTTCAAGCGCCATCTAC | 0.877 RPM ratio (pull-down/input) |
| GATGATTGTTCTCCCAGCTGATGAATTGCCCAGGTCGAGTAAACAAATTTTCCTAATCTTTCTGTTCAAGCGCCATCTAC | 0.871 RPM ratio (pull-down/input) |

| Sequence | binding signal |
| --- | --- |
| GATGATTGTTCTCCCAGCTGATGAATTATTGGGTTCGAGTAAACAAATTTTCCTAATCTTTCTGTTCAAGCGCCATCTAC | 1.06 RPM ratio (pull-down/input) |
| GATGATTGTTCTCCCAGCTGATGAATTTGGACAATCGAGTAAACAAATTTTCCTAATCTTTCTGTTCAAGCGCCATCTAC | 1.17 RPM ratio (pull-down/input) |
| GATGATTGTTCTCCCAGCTGATGAATTGTGACTATCGAGTAAACAAATTTTCCTAATCTTTCTGTTCAAGCGCCATCTAC | 1.18 RPM ratio (pull-down/input) |
| GATGATTGTTCTCCCAGCTGATGAATTTTGATACTCGAGTAAACAAATTTTCCTAATCTTTCTGTTCAAGCGCCATCTAC | 1.06 RPM ratio (pull-down/input) |
| GATGATTGTTCTCCCAGCTGATGAATTTCCTTAGTCGAGTAAACAAATTTTCCTAATCTTTCTGTTCAAGCGCCATCTAC | 0.788 RPM ratio (pull-down/input) |
| GATGATTGTTCTCCCAGCTGATGAATTTATCCAGTCGAGTAAACAAATTTTCCTAATCTTTCTGTTCAAGCGCCATCTAC | 0.962 RPM ratio (pull-down/input) |
| GATGATTGTTCTCCCAGCTGATGAATTACTTCAATCGAGTAAACAAATTTTCCTAATCTTTCTGTTCAAGCGCCATCTAC | 1.16 RPM ratio (pull-down/input) |
| GATGATTGTTCTCCCAGCTGATGAATTGTAGTCCTCGAGTAAACAAATTTTCCTAATCTTTCTGTTCAAGCGCCATCTAC | 1.02 RPM ratio (pull-down/input) |
| GATGATTGTTCTCCCAGCTGATGAATTTCCGGCGTCGAGTAAACAAATTTTCCTAATCTTTCTGTTCAAGCGCCATCTAC | 0.8 RPM ratio (pull-down/input) |
| GATGATTGTTCTCCCAGCTGATGAATTGGAGAATTCGAGTAAACAAATTTTCCTAATCTTTCTGTTCAAGCGCCATCTAC | 0.907 RPM ratio (pull-down/input) |
| GATGATTGTTCTCCCAGCTGATGAATTAGCACTATCGAGTAAACAAATTTTCCTAATCTTTCTGTTCAAGCGCCATCTAC | 0.988 RPM ratio (pull-down/input) |
| GATGATTGTTCTCCCAGCTGATGAATTGAGCAACTCGAGTAAACAAATTTTCCTAATCTTTCTGTTCAAGCGCCATCTAC | 0.874 RPM ratio (pull-down/input) |
| GATGATTGTTCTCCCAGCTGATGAATTAGGAACGTCGAGTAAACAAATTTTCCTAATCTTTCTGTTCAAGCGCCATCTAC | 0.882 RPM ratio (pull-down/input) |
| GATGATTGTTCTCCCAGCTGATGAATTAATTAGCTCGAGTAAACAAATTTTCCTAATCTTTCTGTTCAAGCGCCATCTAC | 0.904 RPM ratio (pull-down/input) |
| GATGATTGTTCTCCCAGCTGATGAATTAATCGTATCGAGTAAACAAATTTTCCTAATCTTTCTGTTCAAGCGCCATCTAC | 1.04 RPM ratio (pull-down/input) |
| GATGATTGTTCTCCCAGCTGATGAATTTCATAAATCGAGTAAACAAATTTTCCTAATCTTTCTGTTCAAGCGCCATCTAC | 1.05 RPM ratio (pull-down/input) |
| GATGATTGTTCTCCCAGCTGATGAATTTAGCGGTTCGAGTAAACAAATTTTCCTAATCTTTCTGTTCAAGCGCCATCTAC | 0.874 RPM ratio (pull-down/input) |
| GATGATTGTTCTCCCAGCTGATGAATTGCGTATGTCGAGTAAACAAATTTTCCTAATCTTTCTGTTCAAGCGCCATCTAC | 1.2 RPM ratio (pull-down/input) |
| GATGATTGTTCTCCCAGCTGATGAATTAGGGGAGTCGAGTAAACAAATTTTCCTAATCTTTCTGTTCAAGCGCCATCTAC | 0.752 RPM ratio (pull-down/input) |
| GATGATTGTTCTCCCAGCTGATGAATTACCTTCATCGAGTAAACAAATTTTCCTAATCTTTCTGTTCAAGCGCCATCTAC | 1.01 RPM ratio (pull-down/input) |
| GATGATTGTTCTCCCAGCTGATGAATTGAAGGCATCGAGTAAACAAATTTTCCTAATCTTTCTGTTCAAGCGCCATCTAC | 1.03 RPM ratio (pull-down/input) |

| Sequence | binding signal |
| --- | --- |
| GATGATTGTTCTCCCAGCTGATGAATTGATCGGGTCGAGTAAACAAATTTTCCTAATCTTTCTGTTCAAGCGCCATCTAC | 0.834 RPM ratio (pull-down/input) |
| GATGATTGTTCTCCCAGCTGATGAATTCTTCGTCTCGAGTAAACAAATTTTCCTAATCTTTCTGTTCAAGCGCCATCTAC | 0.829 RPM ratio (pull-down/input) |
| GATGATTGTTCTCCCAGCTGATGAATTGCATGTGTCGAGTAAACAAATTTTCCTAATCTTTCTGTTCAAGCGCCATCTAC | 1.18 RPM ratio (pull-down/input) |
| GATGATTGTTCTCCCAGCTGATGAATTAATTGCATCGAGTAAACAAATTTTCCTAATCTTTCTGTTCAAGCGCCATCTAC | 1.4 RPM ratio (pull-down/input) |
| GATGATTGTTCTCCCAGCTGATGAATTCCCGTCATCGAGTAAACAAATTTTCCTAATCTTTCTGTTCAAGCGCCATCTAC | 0.881 RPM ratio (pull-down/input) |
| GATGATTGTTCTCCCAGCTGATGAATTAGTGCATTCGAGTAAACAAATTTTCCTAATCTTTCTGTTCAAGCGCCATCTAC | 1.42 RPM ratio (pull-down/input) |
| GATGATTGTTCTCCCAGCTGATGAATTACCAAATTCGAGTAAACAAATTTTCCTAATCTTTCTGTTCAAGCGCCATCTAC | 1.18 RPM ratio (pull-down/input) |
| GATGATTGTTCTCCCAGCTGATGAATTGTAGTTATCGAGTAAACAAATTTTCCTAATCTTTCTGTTCAAGCGCCATCTAC | 1.39 RPM ratio (pull-down/input) |
| GATGATTGTTCTCCCAGCTGATGAATTATAGTGTTCGAGTAAACAAATTTTCCTAATCTTTCTGTTCAAGCGCCATCTAC | 1.2 RPM ratio (pull-down/input) |
| GATGATTGTTCTCCCAGCTGATGAATTGTAGTTCTCGAGTAAACAAATTTTCCTAATCTTTCTGTTCAAGCGCCATCTAC | 0.975 RPM ratio (pull-down/input) |
| GATGATTGTTCTCCCAGCTGATGAATTACCGTTCTCGAGTAAACAAATTTTCCTAATCTTTCTGTTCAAGCGCCATCTAC | 0.958 RPM ratio (pull-down/input) |
| GATGATTGTTCTCCCAGCTGATGAATTAAGGCCATCGAGTAAACAAATTTTCCTAATCTTTCTGTTCAAGCGCCATCTAC | 0.923 RPM ratio (pull-down/input) |
| GATGATTGTTCTCCCAGCTGATGAATTCGCCAGTTCGAGTAAACAAATTTTCCTAATCTTTCTGTTCAAGCGCCATCTAC | 0.807 RPM ratio (pull-down/input) |
| GATGATTGTTCTCCCAGCTGATGAATTCTGCCCGTCGAGTAAACAAATTTTCCTAATCTTTCTGTTCAAGCGCCATCTAC | 0.815 RPM ratio (pull-down/input) |
| GATGATTGTTCTCCCAGCTGATGAATTGCTGTGTTCGAGTAAACAAATTTTCCTAATCTTTCTGTTCAAGCGCCATCTAC | 1.53 RPM ratio (pull-down/input) |
| GATGATTGTTCTCCCAGCTGATGAATTTCCCTGGTCGAGTAAACAAATTTTCCTAATCTTTCTGTTCAAGCGCCATCTAC | 0.791 RPM ratio (pull-down/input) |
| GATGATTGTTCTCCCAGCTGATGAATTAGCCCAGTCGAGTAAACAAATTTTCCTAATCTTTCTGTTCAAGCGCCATCTAC | 0.795 RPM ratio (pull-down/input) |
| GATGATTGTTCTCCCAGCTGATGAATTTCGGAGGTCGAGTAAACAAATTTTCCTAATCTTTCTGTTCAAGCGCCATCTAC | 0.762 RPM ratio (pull-down/input) |
| GATGATTGTTCTCCCAGCTGATGAATTGAGAGGCTCGAGTAAACAAATTTTCCTAATCTTTCTGTTCAAGCGCCATCTAC | 0.884 RPM ratio (pull-down/input) |
| GATGATTGTTCTCCCAGCTGATGAATTATCCGAGTCGAGTAAACAAATTTTCCTAATCTTTCTGTTCAAGCGCCATCTAC | 0.967 RPM ratio (pull-down/input) |
| GATGATTGTTCTCCCAGCTGATGAATTGGATCCTTCGAGTAAACAAATTTTCCTAATCTTTCTGTTCAAGCGCCATCTAC | 0.821 RPM ratio (pull-down/input) |
